To fix the notation:
B1: LINE1-full (parent)
chain: UACGUAGGUGGUUUUCCCCUGAUAGUGCUAAGGGGGCCUGGAAGUUUGGACUGGGCAGAGCUCAACACAGCGUGGCAAAGUGGCUGUGGCUAGACUGCCUCUCUGGAUUCCUCGUCACUCAGCAGGGCAUCUCUGAGAGAAAUGCC

The source gives no read counts; variants with many changes may rest on few reads.

The variants in this series derive from B1. Nature of the series: self-cleavage, relative activity (ratio to wild type); higher = more cleavage; in vitro, sequencing; the parent is a self-cleaving ribozyme.
Take UACGUAGGUGGAUUUCCCCUGAUAGUGCUAAGGGGGCCUGGAAGUUCGGACUGGGCAGAGCUCAACACAGCGUGGCAAAGUGGCAGUGGCUAGACUGCCUCUCUGGAUUCCCCGUCACUCAGCAGGGCAUCUCUGAGAGAAAUGCC [U12A U47C U85A U112C]: the self-cleavage worked out at 0.
On to UACGUAGGUGGAUUUCCCCUGAUAGUGCCAAGGGGGCCUGGAAGUUUGGACUGGGCAGAGCUCAACACAGCACGGCAAAGUGGCUGUGGCUAGAAUGCCUCUCUGGAUUCCUCGACACUCAGCAGGGCAUCUCUGAGAGAAAUGCC [U12A U29C G72A U73C C95A U115A], for which the self-cleavage was 0.06.
In the case of UACGUAGGUGGAUUUCCCCCGAUAGGGCUAAGGGGGCCUGGGAGUUUGGACUGGGCAGAGCUCAACACAGCGUGGCAAAGUGGCUGUGGCUAGACUGCCUCUCUGGAUUCCUCGUCACUCAGCAGGGCAUCUCUGAGAGAAAUGCC [U12A U20C U26G A42G] it was 0.8; in that of UACGUAGGUGGAUUUCCCCUGAUAGUGCUAAGGGGGCCCGGAAGUUUGGACUGGGCAGAGCUCAACACAGCGAGGCAAAGUGGCUGUGGCUAGACUGCCUCUCUGGGUUCCUCAUCACUCAGCAGGGCAUCUCUGAGAGAAAUGCC [U12A U39C U73A A107G G114A], 1.3.
On to UACGUAGGUGGAUUUCCCCGGAUAGUGCUAAGGGGGUCUGGAAGUUUGGACUGGGCAGAGCUCAACACAGCGUGGCAAAGUGGCUGUGGCUAGACUGCCUCUCUGGAUUCCUCGUCACUCAGCAGGGCAUCUCUGAGAGAAAUGCC [U12A U20G C37U], for which the self-cleavage amounted to 0.78.
Under UACGUAGGUGGAUUUCCCCCGAUAGUGCUAAGGGGGCCUGGAAGUUUGGACUGGGCAGAGCUCAACACAGCGUGGCAAAGUGGCUGUGGCUAGACAGCCUCUCUGGAUUCCUCGUCACUCAGCAGGGCAUCUCUGAGAGAAAUGCC [U12A U20C U96A] stands 0.12; under UACGUAGGUGGAUUUCCCCUGAUAGUGCUAAGGGGGCCUGGAAGUUUGGACCGGGCAGAGCUCAACACAGCGAGGCAAAGUGGCUGUGGCUAGACUGCCUCUCUGGAUUCCUCGACACUCAGCAGGGCAUCUCUGAGAGAAAUGCC [U12A U52C U73A U115A], 1.3.
As for UACGUAGGUGGAUCUCCCCUGAUAAUGCUAAGGGGGCCUGGAAGUUUGGACUGGGCAGAGCUCAACACAGCGAGGCAAAGUGGCUGUGGCUAGACUGCCUCUCUGGAUUCCUCGUCACUCAGCAGGGCAUCUCCGAGAGAAAUGCC [U12A U14C G25A U73A U134C], the self-cleavage was 1.37.
Under UACGUAGGUGGAUUUCCCCUGAUAGUGCUAAGGGGGCCUGGAAGUCUGGACUGGGCAGAGCUCAACACAGCGUGGCGAAGUGGCUGUGGCUAGACUACCUCUCUGGAUUCCUCGUCACUCAGCAGGGCAUCUCUGAGAGAAAUGCC [U12A U46C A77G G97A] stands 0.67.
In the case of UACGUAGGUGGAUCUCCCCUGAUAGUGCUAAGGGGGCCCGGAAGUUUGGACUGGGCAGAGCUCAACACAGCGUGGCAAAGUGGCUGUGGCUAGACUGCCUCUCAGGAUUCCUCGUCACUCAGCAGGGCAUCUCUGAGAGAAAUGCC [U12A U14C U39C U104A] it was 0.9.
Under UACGUAGGUGGAUCUCCCGUGAUAGUGCUAAGGGGGCCUGGAAGUUUAGACUGGGCAGAGCUCAGCACAGCGUGGCAAAGUGGCUGUGGCUAGACUGCCUCUCUGGAUUCCUCGUCACUCAGCAGGGCAUCUCUGGGAGAAAUGCC [U12A U14C C19G G48A A65G A136G] stands 0.32.
For the variant UACGUAGGUGGAUCUCCCCCGAUAGUGCUAAGGGGGCCUGGAAGUUUAGACUGGGCAGAGCUCAACACAGCGUGGCAAAGUGGCUGUGGCUAGACUGCCUCUCUGGAUUCCUCGUCACUCAGCAGGGCAUCUCUGAGAGAAAUGCC [U12A U14C U20C G48A], the self-cleavage was 1.09.
Under UACGUAGGUGGAUUUCCCCUGAUAGUGCUAAGGGGGCCCGGAAGUUUGGACUGGGCGGAGCUCAACACAGCGUGGCAAAGUGGCUGUGGCUAGACUGCCUCUCUGGAUUCCUCGUCUCUCAGCAGGGCAUCUCUGAGAGAAAUGCC [U12A U39C A57G A117U] stands 0.75; under UACGUAGGUGGAUCUCCCCUGAUAGUGCUAAGGGGGCCUGGAAGUUUGGACUGGGCAGAGCUCAACACAGCGCGGCAAAGUGGCUGUGGCUAGACUGCCCCUCUGGAUUCCUCGUCACUCAGCAGGGCAUCUCUGAGAGAAAUGCC [U12A U14C U73C U100C], 1.67.
Under UACGUAGGUGGAUUUCCCCUGAUAGCGCUAAGGGGGCCUGGAAGUUUGGACUGGGCAGAGCUCAACACAGCGAGGCAAAGUGGCUGUGGCUAGACUGCCUCUCUGGAUUCCUCGUCACUCAGCAGGGCAUCUCUGAGAGAAAUGCC [U12A U26C U73A] stands 0.15; under UACGUAGGUGGAUUACCCCUGAUAGUGCUAAGGGGGCCUGGAGGGUUGGACUGGGUAGAGCUCAACACAGCGUGGCAAUGUAGCUGUGGCUAGACUGCCUCUCUGGAAUCCUCGUCACUCAGCAGGGCAUCUCUGAGAGAAACGCC [U12A U15A A43G U45G C56U A79U G82A U108A U143C], 0.38; under UACGUAGGUGGAUUUCCCCUGAUAGUGCUAAGGGGGCCAGGAAGUUUGGACUGGGCAGGGCUCAACACAGCGUGGCAAAGUGGCUGUGGCUAGACUGCCUCUCUGGAUUCCUCGUCACUCAGCAGGGCAUCUCUGAGAGAAAUGCC [U12A U39A A59G], 0.2.
For UACGUAGGUGGAUUUCCCCCGAUAGUGCUAAGGGGGCCUGGAAGUUUGGACUGGGCAGAGCUCAACACAGCGUGGCAAAGUGGCUGUGGCUAGACUGCCACUCUGGUUACCUCGUCACUCAGCAGGGCAUCUCUGAGAGAAAUGCC [U12A U20C U100A A107U U109A], the self-cleavage is 0.87.
Under UACGUAGGUGGAUUUCCCCCGAUAGUGCUAAGGGGGCCUGGAAGUUUGGACUGAGCAGAGCUCAACACAGCGUGGCAAAGUGGCUGUGGCUAGACUGCCUCUCUGGAUUCCUCGUCACACAGCAGGGCAUCUCUGAGAGAAAUGCC [U12A U20C G54A U119A] stands 0.22; under UACGUAGGUGGAUUUCCCCUGAUAGUGCUAAGGGGGCCUGGAAGUUCGGACUGGGCAGAGCUCAACACAGCGUGGCAAAGUGGCUGUGGCUAGACUGCCUCUCUGGAUUCCUCGUCACUCAGCUGGGCAUCUCUGAGAGAAAUGCC [U12A U47C A124U], 1.9.

Source of the values: the RNAGym collection of RNA variant scans (doi:10.7554/elife.90254).
